Measured values from PubChem BioAssay AID1347417 (National Center for Advancing Translational Sciences (NCATS), 2020).
Among all 120,000 compounds or so, about 5,300 (4.4%) were called active. The inconclusive results got no clear call from the source; some entries with a clear call stand among them for comparison. The call rests on the fitted dose curve; in most records, active means well fitted inhibition curve with a large enough effect; inconclusive means small, poorly fitted or top-dose-only effect; inactive means no such curve, though single readings can be large or run the other way. Where the call is inconclusive, the potency comes from a doubtful curve fit.

test: qHTS Primary assay for Inhibitors of Plasmodium falciparum Dd2 growth in vitro; further: nearly all actives have a fitted effect of over 65% in size; details: P. falciparum Dd2 growth, SYBR Green, 72 h; series mostly up to 28.9 µM
In short: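 Infected erythrocytes (Dd2, 0.3% parasitemia, 2.5% hematocrit final) are added to compound in RPMI-1640/Albumax II medium, grown 72 h at 37C in low oxygen, then lysed with saponin/Triton-X containing SYBR Green and read by fluorescence.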
Potency means the concentration at half of the fitted maximal effect; tags describe the fitted curve by direction and shape.

Compound | Potency
CCCCN1C(=O)C(O)(c2c(C)[nH]c3ccccc23)c2ccccc21 (stereo not drawn) | inactive
CCCOc1ccccc1C1Oc2nc(SC)nnc2-c2ccccc2N1C(C)=O (stereo not drawn) | inconclusive: 17.8 µM [inhibitor, single point]
CCOc1cccc(CN2CCCC23Cc2ccccc2CNC3=O)c1 (stereo not drawn) | inconclusive: 10 µM [inhibitor, single point]
COCCNC(=O)Cn1ncc2c(C)n(Cc3ccc(C)cc3)c(C)c2c1=O | inactive
O=C(O)c1cccc2c1CCN2C(=O)c1ccc(F)cc1 | inactive
Cc1cccnc1C(C)n1cc(-c2ccccc2-c2ccco2)nn1 (stereo not drawn) | inconclusive: 15.8 µM [inhibitor, single point]
O=C1N[C@H](CC(=O)N2CCc3ccccc3C2)C(=O)Nc2ccccc21 | inconclusive: 14.1 µM [inhibitor, single point]
COc1ccc(-c2nc3c(c(=O)[nH]2)CCN(C(=O)Cc2ccc(OC)c(Cl)c2)C3)cc1 | inconclusive: 2 µM [inhibitor, single point]
CN(Cc1ccnn1C)C1CCCc2ccccc21 (stereo not drawn) | inactive
COc1cccc(CN2CCNc3cc(Nc4cccnc4)ncc3C2)c1 | inconclusive: 3.55 µM [inhibitor, single point]
COc1ccc(-c2cn(C)c(=O)n3cc(CN(C)C)nc23)cc1OC | inactive
CCc1nc2c(c(-c3ccc(Cl)cc3)n1)CCN(Cc1cccc3ccccc13)CC2 | inconclusive: 1.78 µM [inhibitor, partial curve, poor fit]
COc1cc(-c2cc3c(nc2-c2ccccc2)nc(C(=O)NC2CCN(C)CC2)n3C)ccn1 | inconclusive: 3.98 µM [inhibitor, single point]
Cc1ccsc1C(=O)N1CCC[C@H](n2c(=O)n(CC3CC3)c3cccnc32)C1 | inconclusive: 1.78 µM [inhibitor, single point]
Cc1nn(-c2ccc(F)cc2)c(Oc2ccccc2F)c1CCC(=O)N(C)C(C)C | inconclusive: 2.51 µM [inhibitor, partial curve, poor fit]
CCOc1ccccc1CNC(=O)c1cc(-c2ccc(C)c(C)c2)nc2ccccc12 | inconclusive: 17.8 µM [inhibitor, single point]
CCn1c(CN2CCCCC2)nc2cc(NC(=O)c3ccc([N+](=O)[O-])cc3)ccc21 | inconclusive: 12.6 µM [inhibitor, single point]
COc1ccccc1CNC[C@H]1Cn2cc(-c3ccccc3OC)nc2CO1 | inconclusive: 12.6 µM [inhibitor, single point]
